The supplement of paper PMC10126150
Values marked as one replicate rest on one cluster of the flow cell; about a third of the high ones do not repeat.

Test system: ATP
Test: switch fluorescence ratio, 500 uM ATP over buffer (Cy3 cluster intensity, sum of 5 cycles each) (fold (ratio)); higher = stronger signal-on switching upon ATP binding; sequences stand for … in TCGTCGGCAGCGTCAGATGTGTATAAGAGACAGTTTTTTTTTTTTTTTTTTTTTTTTT…TC
Details: aptamer strand: ATP DNA aptamer (quencher-CACCTGGGGGAGTATTGCGGAGGAAGG + anchor), 100 nM annealed; ATP concentration: 500 uM; one replicate
Summary of the method: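 Exposure to 500 uM ATP lasted 15 min at 22 °C before imaging, and a selection-buffer image was taken beforehand, for Cy3-labelled switching-strand clusters on a modified Illumina MiSeq flow-cell annealed to 100 nM quencher-labelled ATP aptamer. Five buffer/ATP cycles were run with NaOH stripping and re-annealing between them. The fluorescence ratio per cluster is summed target-cycle over summed buffer-cycle Cy3 intensity, averaged per switch-domain sequence. Clusters outside 100-1000 RFU were excluded.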

Sequence: TATGAGAGAT
- switch fluorescence ratio: 1.01

Sequence: TGACTCGTGG
- switch fluorescence ratio: 0.99

Sequence: CGAGCAGTCG
- switch fluorescence ratio: 1.03

Sequence: GGCGGTTGAG
- switch fluorescence ratio: 0.961

Sequence: TCGAGGAAGG
- switch fluorescence ratio: 1.02

Sequence: TATCCCAGTA
- switch fluorescence ratio: 1

Sequence: TGGGGAAGCA
- switch fluorescence ratio: 1.02

Sequence: AAGAAATAGT
- switch fluorescence ratio: 1.02

Sequence: GTCAAAAAAA
- switch fluorescence ratio: 0.971

Sequence: GAGCGAACCT
- switch fluorescence ratio: 1.63

Sequence: AGTGGGTACG
- switch fluorescence ratio: 1

Sequence: CTATGACGT
- switch fluorescence ratio: 1.01

Sequence: TCAGAATTGC
- switch fluorescence ratio: 1.07

Sequence: TTCGTGTTCG
- switch fluorescence ratio: 1.04

Sequence: CTTTAAACGT
- switch fluorescence ratio: 1.02

Sequence: AAATCCAGAA
- switch fluorescence ratio: 1

Sequence: TAGTCTTTCT
- switch fluorescence ratio: 1.11

Sequence: TCCTCTGGCT
- switch fluorescence ratio: 1.74

Sequence: TTGAGAAAGC
- switch fluorescence ratio: 0.992

Sequence: GACGGATTGG
- switch fluorescence ratio: 0.944

Sequence: TTACCATTTC
- switch fluorescence ratio: 1.05

Sequence: TTGGGGGTG
- switch fluorescence ratio: 1.06

Sequence: CGGGATGGTC
- switch fluorescence ratio: 0.988

Sequence: GTACGGATGA
- switch fluorescence ratio: 1.07

Sequence: ATGCGAGA
- switch fluorescence ratio: 0.968

Sequence: ACGATTTAA
- switch fluorescence ratio: 0.995

Sequence: ATAATTTTAA
- switch fluorescence ratio: 0.996

Sequence: TAAGGTTAGA
- switch fluorescence ratio: 1.04

Sequence: AAGTTGTTCG
- switch fluorescence ratio: 1.01

Sequence: AACCCCGACA
- switch fluorescence ratio: 1.39

Sequence: AAGGCCGGTT
- switch fluorescence ratio: 0.992

Sequence: ATTTCCTGGT
- switch fluorescence ratio: 0.979

Sequence: ATGAGTATTC
- switch fluorescence ratio: 0.973

Sequence: GACTCGGGTC
- switch fluorescence ratio: 1.03

Sequence: TTCCCCTCGT
- switch fluorescence ratio: 1.02

Sequence: CTTGCGACCC
- switch fluorescence ratio: 1.35

Sequence: TAGCAAAAGA
- switch fluorescence ratio: 1.07

Sequence: TTATATGATG
- switch fluorescence ratio: 0.977

Sequence: GCGGGACCC
- switch fluorescence ratio: 0.964

Sequence: GAGAGGTTAA
- switch fluorescence ratio: 1.04

Sequence: CAGATGGGAT
- switch fluorescence ratio: 0.972

Sequence: AGGGGGTGAG
- switch fluorescence ratio: 1.01

Sequence: GGATGTAGAC
- switch fluorescence ratio: 0.968

Sequence: ATCCAGTAAT
- switch fluorescence ratio: 1.07

Sequence: TTCAAAAGTT
- switch fluorescence ratio: 1.02

Sequence: CGAAAGCATT
- switch fluorescence ratio: 1.09

Sequence: AGTTATTGAC
- switch fluorescence ratio: 1.03

Sequence: CCACCCCA
- switch fluorescence ratio: 1.14

Sequence: ACCTCGAGTA
- switch fluorescence ratio: 1.06

Sequence: ATTCCTTTAA
- switch fluorescence ratio: 0.987

Sequence: CGCATTCCAC
- switch fluorescence ratio: 4.03

Sequence: GAGGGAGGTT
- switch fluorescence ratio: 1.02

Sequence: TTCCTTAAC
- switch fluorescence ratio: 0.975

Sequence: CAACACAATA
- switch fluorescence ratio: 1.53

Sequence: CCGTGTCCGG
- switch fluorescence ratio: 0.998

Sequence: CTGCTGAGTC
- switch fluorescence ratio: 1

Sequence: CGTCTTGTAT
- switch fluorescence ratio: 0.978

Sequence: AGTTAATGTG
- switch fluorescence ratio: 0.945

Sequence: GAGATTAGTT
- switch fluorescence ratio: 0.982

Sequence: GAATGCCGAA
- switch fluorescence ratio: 1.01

Sequence: TAAGGCAGGG
- switch fluorescence ratio: 0.975

Sequence: GAGTCATGGA
- switch fluorescence ratio: 0.956

Sequence: AGTTACTAGT
- switch fluorescence ratio: 0.996

Sequence: CAGCATGGG
- switch fluorescence ratio: 1.05

Sequence: CGCGTTTGGG
- switch fluorescence ratio: 1.03

Sequence: CGAACCGAAT
- switch fluorescence ratio: 0.976

Sequence: TCTTGCTTCA
- switch fluorescence ratio: 1.01

Sequence: ATTGATGGAT
- switch fluorescence ratio: 1.02

Sequence: CAGTTATGAG
- switch fluorescence ratio: 0.988

Sequence: GAACTCCATA
- switch fluorescence ratio: 1.03

Sequence: AAGCGGTTTA
- switch fluorescence ratio: 0.995

Sequence: TCAGGCCCCT
- switch fluorescence ratio: 0.963

Sequence: GAGATTGTAT
- switch fluorescence ratio: 1.02

Sequence: CGGGATGAAA
- switch fluorescence ratio: 0.956

Sequence: CTCATTTGTG
- switch fluorescence ratio: 0.968

Sequence: ATACTACCAG
- switch fluorescence ratio: 1.07

Sequence: TCCTGGGAAA
- switch fluorescence ratio: 1.03

Sequence: TGGCGTAAGT
- switch fluorescence ratio: 1

Sequence: TCATACGAGA
- switch fluorescence ratio: 1.1

Sequence: ATTGTGAGGA
- switch fluorescence ratio: 0.989

Sequence: GAGTGGATGG
- switch fluorescence ratio: 1.04

Sequence: TTTCCATAC
- switch fluorescence ratio: 2.41

Sequence: AACGCTACTA
- switch fluorescence ratio: 1.55

Sequence: GGGATGCGGT
- switch fluorescence ratio: 0.982

Sequence: AACGGTCGTA
- switch fluorescence ratio: 0.965

Sequence: ACTAATCGC
- switch fluorescence ratio: 1.07

Sequence: GCTCTTCGCT
- switch fluorescence ratio: 1

Sequence: TATAGCGTA
- switch fluorescence ratio: 1.05

Sequence: TGCGTAGATT
- switch fluorescence ratio: 1.04

Sequence: GCAACGATGG
- switch fluorescence ratio: 1.01

Sequence: GGGTCGGGCG
- switch fluorescence ratio: 0.998

Sequence: GTCTGGAATA
- switch fluorescence ratio: 1.27

Sequence: AATTATACTA
- switch fluorescence ratio: 0.991

Sequence: GGGTACCATG
- switch fluorescence ratio: 1.02

Sequence: GTTGTATTCA
- switch fluorescence ratio: 0.992

Sequence: TAGAGTGTTT
- switch fluorescence ratio: 1.01

Sequence: TTAATTCTCG
- switch fluorescence ratio: 1.03

Sequence: GAACGCGAT
- switch fluorescence ratio: 2.82

Sequence: GTATAAAAAC
- switch fluorescence ratio: 1

Sequence: GTGATAGATA
- switch fluorescence ratio: 0.986

Sequence: AAAACTCGCT
- switch fluorescence ratio: 1.06

Sequence: TGCCTGTGAG
- switch fluorescence ratio: 0.992

Sequence: AAGGAAGTTC
- switch fluorescence ratio: 0.933

Sequence: ATAAGTTGGA
- switch fluorescence ratio: 1.04

Sequence: GGTCGAGGCG
- switch fluorescence ratio: 1

Sequence: GGCGGCAGGC
- switch fluorescence ratio: 1.05

Sequence: TGTATCCAAC
- switch fluorescence ratio: 1

Sequence: GGTCCAAGAC
- switch fluorescence ratio: 1.1

Sequence: TTCATAAGAG
- switch fluorescence ratio: 0.975

Sequence: GACGTCACAA
- switch fluorescence ratio: 1.06

Sequence: TACGGAGTTG
- switch fluorescence ratio: 1.01

Sequence: TAAATCAGTG
- switch fluorescence ratio: 1.02

Sequence: CCGCGGTAGG
- switch fluorescence ratio: 1.07

Sequence: CATCTGTCTG
- switch fluorescence ratio: 1.01

Sequence: AGGGTATACA
- switch fluorescence ratio: 0.993

Sequence: GTTGCATCTC
- switch fluorescence ratio: 1.02

Sequence: TTAGCTCCGG
- switch fluorescence ratio: 1.04

Sequence: TACATGCTGG
- switch fluorescence ratio: 0.964

Sequence: TAAATGATGG
- switch fluorescence ratio: 0.961

Sequence: TATTAGACGG
- switch fluorescence ratio: 1.01

Sequence: ATCACCATGG
- switch fluorescence ratio: 1.03

Sequence: CACCTTCTT
- switch fluorescence ratio: 1.21

Sequence: TTATCTACAA
- switch fluorescence ratio: 1.05

Sequence: AATAGGCTCG
- switch fluorescence ratio: 1

Sequence: TTCCCGAGAA
- switch fluorescence ratio: 1.02

Sequence: AAATTGAAAG
- switch fluorescence ratio: 1.08

Sequence: TGGTATAC
- switch fluorescence ratio: 1.13

Sequence: GGTGACTAGA
- switch fluorescence ratio: 1.03

Sequence: CCGCGGTTGT
- switch fluorescence ratio: 1.15

Sequence: ATAAGGTGGG
- switch fluorescence ratio: 0.994

Sequence: AAATAACGCG
- switch fluorescence ratio: 0.946

Sequence: CAATGAGCG
- switch fluorescence ratio: 0.967

Sequence: TGATCACTAC
- switch fluorescence ratio: 1.02

Sequence: TTGAGATAGG
- switch fluorescence ratio: 1.01

Sequence: CTTACTGGGG
- switch fluorescence ratio: 0.992

Sequence: GGTTCTGTTC
- switch fluorescence ratio: 1.03

Sequence: CGAATAGATG
- switch fluorescence ratio: 0.976

Sequence: TATGGAAACT
- switch fluorescence ratio: 1.1

Sequence: GATGTTCCTG
- switch fluorescence ratio: 1.05

Sequence: GGTTATGCTA
- switch fluorescence ratio: 1.01

Sequence: AGCGGGGAGA
- switch fluorescence ratio: 1.07

Sequence: GGGTAATTCT
- switch fluorescence ratio: 0.995

Sequence: GCACGCAGCC
- switch fluorescence ratio: 1.38

Sequence: ATTATGCAGC
- switch fluorescence ratio: 1.04

Sequence: GACGTATTTG
- switch fluorescence ratio: 0.956

Sequence: CAAGATTGTA
- switch fluorescence ratio: 0.993

Sequence: TTCCAGTCTC
- switch fluorescence ratio: 0.983

Sequence: GTCGCGTTAC
- switch fluorescence ratio: 2.69

Sequence: CCTACGTGGG
- switch fluorescence ratio: 1.37

Sequence: GAAGTATGT
- switch fluorescence ratio: 1.02

Sequence: CGCTTAAATT
- switch fluorescence ratio: 0.989

Sequence: TCTATCTCTT
- switch fluorescence ratio: 0.988

Sequence: TAACCGTTTA
- switch fluorescence ratio: 0.987

Sequence: ACTGCGATT
- switch fluorescence ratio: 1.13

Sequence: GAAGGGCCAT
- switch fluorescence ratio: 1.11

Sequence: AATTAATATA
- switch fluorescence ratio: 0.953

Sequence: GGATCTGCGA
- switch fluorescence ratio: 1.03
